According to PubChem BioAssay AID1460 (National Center for Advancing Translational Sciences (NCATS), 2008):
In all, about 270,000 compounds went through this assay and about 5,800 (2.1%) were called active. This list was built around the results that the source calls inconclusive (neither active nor inactive); the mix of calls is not that of the screen. Calls follow the shape of the dose curve; as a rule, active = well fitted inhibition curve with a large enough effect; inconclusive = small, poorly fitted or top-dose-only effect; inactive = flat fitted curve, though single readings scatter. A potency beside an inconclusive call is a rough fit, not a confirmed value.
% is scaled to controls: 0 for no effect and ±100 for the full control effect; potency is read from the fitted curve at half-maximal effect; tags tell the direction and shape of the fitted curve.
Also: nearly all actives have a fitted effect of over 55% in size.

These compounds were tested against Microtubule-associated protein tau (Homo sapiens) (UniProt P10636) (assay: qHTS for Inhibitors of Tau Fibril Formation, Thioflavin T Binding). Settings: recombinant tau K18 P301L (four-repeat tau fragment), heparin-induced fibrillization, ThT fluorescence; series mostly up to 57.4 µM; activity, negative = inhibition: at the top concentration.
UniProt P10636, sequence (P10636 whole entry, looked up, the tested form may be a part): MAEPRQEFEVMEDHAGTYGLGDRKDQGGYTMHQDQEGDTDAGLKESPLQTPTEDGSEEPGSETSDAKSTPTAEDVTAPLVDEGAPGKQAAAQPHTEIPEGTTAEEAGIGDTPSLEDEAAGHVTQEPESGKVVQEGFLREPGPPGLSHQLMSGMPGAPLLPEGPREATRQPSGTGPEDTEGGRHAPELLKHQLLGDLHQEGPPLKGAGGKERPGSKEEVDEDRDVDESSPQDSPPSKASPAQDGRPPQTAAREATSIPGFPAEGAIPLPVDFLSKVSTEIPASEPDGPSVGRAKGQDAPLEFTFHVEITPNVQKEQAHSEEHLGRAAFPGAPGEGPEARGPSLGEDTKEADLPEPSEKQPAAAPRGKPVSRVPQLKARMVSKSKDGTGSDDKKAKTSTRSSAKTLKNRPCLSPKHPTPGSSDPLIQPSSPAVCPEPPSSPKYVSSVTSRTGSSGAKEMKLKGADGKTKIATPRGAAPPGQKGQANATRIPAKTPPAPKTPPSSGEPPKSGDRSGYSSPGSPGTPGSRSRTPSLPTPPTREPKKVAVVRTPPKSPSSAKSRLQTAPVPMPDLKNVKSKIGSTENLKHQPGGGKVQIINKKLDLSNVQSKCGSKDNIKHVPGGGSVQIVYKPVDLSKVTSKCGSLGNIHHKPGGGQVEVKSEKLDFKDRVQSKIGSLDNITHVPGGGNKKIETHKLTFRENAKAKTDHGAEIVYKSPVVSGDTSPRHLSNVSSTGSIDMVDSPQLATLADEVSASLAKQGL
Procedure, shortened: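 Tau K18 P301L fragment (15 uM unlabeled plus 0.24 uM Alexa 594-labeled) in 100 mM sodium acetate pH 7 with compound, fibrillization induced by 20 uM heparin for 6 hr at 37 C. Thioflavin T (30 uM) added, fluorescence read after 1 hr (ex 450, em 510 nm).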
With `CCOC(=O)c1cnc2ccc(Br)cc2c1NCCN1CCOCC1` the “activity, negative = inhibition” value was inactive: -6.41%.
In the case of `COC(=O)c1nnc(C(=O)N(C)Cc2ccccc2)c2[nH]c3ccccc3c12`, the Potency was inconclusive: 10 µM [inhibitor, partial curve].
With `Cc1ccc(NC(=O)CN2C=NS(=O)(=O)c3ccccc32)cc1` the “activity, negative = inhibition” value was inactive: -0.0279%.
For `CCn1c2ccccc2c2cc(NC(=O)c3cccc(OC)c3OC)ccc21`, the Potency was inconclusive: 3.16 µM [inhibitor, partial curve].
With `COc1cc(OC)c(NC(=O)CCS(=O)(=O)c2ccc3c(c2)oc(=O)n3C)cc1Cl` the “activity, negative = inhibition” value was inactive: 2.59%.
`Cc1nc(C(=O)N/N=C/c2[nH]ncc2Br)cs1` was tested, and the Potency was inconclusive: 7.08 µM [inhibitor, partial curve, poor fit].
For `CC(=O)OC1CC(OC(C)=O)[C@]2(C)C(CC(=O)[C@]3(C)C2CC[C@@]2(C)C(c4ccoc4)OC(=O)C4O[C@@]423)C1(C)C` (some centres not stated), the Potency was active: 25.1 µM.
`Oc1oc(-c2ccccc2)nc1C=Nc1ccccc1` was tested, and the Potency was inconclusive: 39.8 µM [inhibitor, single point].
In the case of `COc1ccc(NCc2cccn2-c2nnc(N3CCCCCC3)s2)cc1`, the Potency was inconclusive: 20 µM [inhibitor, single point].
`CCOC(=O)C(NC(=O)Nc1ccc(C(N)=O)cc1)(c1ccccc1)C(F)(F)F` (configuration not stated) was tested, and the Potency was inconclusive: 0.447 µM [activator, full curve].
In the case of `CCCCN1C=CC(=C2C(=O)c3ccccc3C2=O)C=C1`, the Potency was inconclusive: 14.1 µM [inhibitor, partial curve].
`CCOCCc1c(O)nc(SCC(=O)NCc2ccco2)[nH]c1=O` was tested, and the Potency was inconclusive: 17.8 µM [inhibitor, partial curve].
In the case of `CCc1nnc2c3cnn(-c4ccccc4)c3ncn12`, the Potency was inconclusive: 10 µM [inhibitor, partial curve, poor fit].
With `O=C(CSc1nc2cc(Cl)ccc2s1)c1cc2ccccc2o1` the Potency was inconclusive: 14.1 µM [inhibitor, partial curve].
`COc1ccc(/C=N/NC(=S)Nc2ccccc2[N+](=O)[O-])cc1O` was tested, and the Potency was active: 4.47 µM.
`CCc1nn2c(=O)cc(COC(=O)Cc3ccccc3)nc2s1` was tested, and the “activity, negative = inhibition” value was inactive: -3.3%.
With `Cc1ccc([N+](=O)[O-])cc1S(=O)(=O)N(C)C` the Potency was “inactive”.
`CC(C)OCCCn1c(=O)c2ccccc2n2c(-c3ccccc3)nnc12` was tested, and the “activity, negative = inhibition” value was inactive: -7.28%.
With `CCCCOc1ccc(NC(=O)CSc2cccc3cccnc23)cc1` the Potency was inconclusive: 3.55 µM [inhibitor, full curve].
With `CC#C[C@]1(O)CC[C@H]2[C@@H]3CCC4=CC(=O)CCC4=C3[C@H](c3ccc(N(C)C)cc3)C[C@@]21C` the “activity, negative = inhibition” value was inactive: -16.9%.
In the case of `C/C(=N\S(=O)(=O)c1ccc(C)cc1)NC(=S)Nc1ccccc1`, the “activity, negative = inhibition” value was inactive: -3.05%.
For `N#Cc1ccccc1Cn1c(=O)n(Cc2ccc(C(=O)NCc3ccco3)cc2)c(=O)c2sccc21`, the “activity, negative = inhibition” value was inactive: -18.6%.
`O=C1CC(c2ccc(Cl)cc2)CC(O)=C1C=NCCN1CCNCC1` (configuration not stated) was tested, and the Potency was inconclusive: 31.6 µM [inhibitor, single point].
With `COc1ccccc1Oc1ncnc2c1cnn2-c1ccccc1` the Potency was inconclusive: 17.8 µM [inhibitor, partial curve].
In the case of `COc1ccc(CCNC(=O)c2nnn(-c3cccc(C)c3)c2N)cc1OC`, the Potency was inconclusive: 10 µM [inhibitor, partial curve].
With `Cc1ccccc1CN1C[C@@H]2C[C@@H](c3cn(C)nc3-c3ccccc3)N3CCC[C@@]23C1=O` the Potency was inconclusive: 15.8 µM [inhibitor, partial curve].
In the case of `COc1ccc(OC)c(S(=O)(=O)N2CCC(n3c(C)nc4cccnc43)CC2)c1`, the “activity, negative = inhibition” value was inactive: 4.69%.
For `CC1=CC(C)(C)Nc2ccc(OC(=O)CN3C(=O)C4CCCCC4C3=O)cc21` (configuration not stated), the Potency was inconclusive: 28.2 µM [inhibitor, partial curve].
With `COc1ccc(CCN(C)CCC(=O)Nc2cc(C)ccc2C)cc1OC` the Potency was inconclusive: 15.8 µM [inhibitor, partial curve].
For `Nn1c(SCc2csc(-c3ccccc3)n2)nnc1-c1cccs1`, the Potency was inconclusive: 0.316 µM [inhibitor, full curve].
`CCOC(=O)c1nn(-c2ccc(F)cc2)c(=O)c2c(N)scc12` was tested, and the “activity, negative = inhibition” value was inactive: 0.524%.
With `O=C(CC(=O)N/N=C\c1ccc([N+](=O)[O-])cc1)NCCc1ccccc1` the Potency was inconclusive: 22.4 µM [inhibitor, single point].
With `Cc1ccc(N2C(N)=C(C#N)C(c3cccnc3)C3=C2CC(C)(C)CC3=O)cc1` (configuration not stated) the Potency was inconclusive: 20 µM [inhibitor, partial curve, poor fit].
For `COc1ccc(-c2noc(-c3ccc(N4CCOCC4)c([N+](=O)[O-])c3)n2)cc1`, the “activity, negative = inhibition” value was inactive: 1.75%.
For `COc1cccc(/C=N/NC(=O)CCc2n[nH]c(=O)[nH]c2=O)c1O`, the “activity, negative = inhibition” value was inactive: -11.8%.
`COc1ccc(C(=O)NNC(=O)CSc2nnc(-c3cccnc3)o2)cc1` was tested, and the “activity, negative = inhibition” value was inactive: -2.45%.
For `CCOC(=O)c1c(C)sc(-c2c(-c3ccccc3)[nH]c3[nH]c(=O)[nH]c(=O)c23)c1O`, the Potency was inconclusive: 14.1 µM [inhibitor, partial curve].
In the case of `Cc1ccc(CNC(=O)Nc2cc(C(=O)NCc3cccc(F)c3)ccc2N2CCCC2)cc1`, the “activity, negative = inhibition” value was inactive: -4.33%.
`Cc1nn(C)c(Oc2ccccc2)c1[N+](=O)[O-]` was tested, and the “activity, negative = inhibition” value was inactive: -8.94%.
`Cc1ccc(-c2nc3sc4c(N)ncnc4c3c3c2CCCC3)cc1` was tested, and the Potency was inconclusive: 1.78 µM [inhibitor, full curve, poor fit].
For `COc1ccccc1NS(=O)(=O)c1cc(NC(=O)c2ccncc2)ccc1N1CCOCC1`, the “activity, negative = inhibition” value was inactive: 5.01%.
With `O=C(CCNc1ccc(Br)cc1)c1cccc([N+](=O)[O-])c1` the Potency was inconclusive: 28.2 µM [inhibitor, partial curve].
For `O=C(CNCCC1=CCCCC1)Nc1ccc(N2CCCCCC2)cc1`, the Potency was inconclusive: 22.4 µM [inhibitor, partial curve].
For `Cn1cccc1/C=C1/SC(=S)N(CC(=O)O)C1=O`, the Potency was active: 15.8 µM.
`CCOC(=O)/C(C#N)=C/C=C1\C=Cc2ccccc2N1CC` was tested, and the Potency was active: 1.58 µM.
`COc1ccc(C(=O)NCc2ccccc2OC)c(OC)c1` was tested, and the “activity, negative = inhibition” value was inactive: -10.5%.
With `CS/C(=C\[N+](=O)[O-])Nc1ccc(C)cc1` the Potency was inconclusive: 20 µM [inhibitor, partial curve].
For `COC(=O)c1cccc(-c2ccc(C(c3c(C)[nH][nH]c3=O)c3c(C)[nH][nH]c3=O)o2)c1`, the Potency was active: 7.94 µM.
`CCOC(=O)c1sc(NC(=S)NC(=O)c2ccco2)nc1C` was tested, and the Potency was inconclusive: 1.58 µM [inhibitor, full curve].
With `Cc1ccc(CN(C(=O)COc2ccccc2Cl)c2ccccn2)o1` the “activity, negative = inhibition” value was inactive: -0.912%.
For `COc1ccccc1CN(Cc1nc2ccccc2c(=O)[nH]1)S(=O)(=O)c1ccc2ccccc2c1`, the “activity, negative = inhibition” value was inactive: 2.28%.
With `CCCNC(=O)CS(=O)Cc1nc(-c2ccc(OC)cc2)oc1C` (configuration not stated) the Potency was inconclusive: 28.2 µM [inhibitor, partial curve].
`Cc1csc(NC(=O)c2cccc(Cn3nc(C)c(Br)c3C)c2)n1` was tested, and the Potency was inconclusive: 28.2 µM [inhibitor, single point].
With `CCN(CC)CCN1c2ccccc2Sc2ccc3ccccc3c21` the Potency was inconclusive: 15.8 µM [inhibitor, partial curve].
For `Cc1cccc(NC(=S)N/N=C/c2c[nH]c3ccccc23)c1`, the Potency was active: 15.8 µM.
In the case of `C=CCSc1nc2c(sc3nc(C)cc(C)c32)c(=O)[nH]1`, the Potency was inconclusive: 0.126 µM [inhibitor, full curve, poor fit].
For `CCn1c(=O)c2c(nc3n2CCN3c2ccc(OC)cc2)n(C)c1=O`, the Potency was inconclusive: 8.91 µM [inhibitor, single point].
For `CCn1c(/N=C/c2c[nH]c3ccccc23)nc2ccccc21`, the Potency was inconclusive: 12.6 µM [inhibitor, partial curve].
In the case of `Cc1cccc(N2CCN(CC(O)COc3ccc(Cl)cc3)CC2)c1` (configuration not stated), the Potency was inconclusive: 8.91 µM [inhibitor, partial curve, poor fit].
With `O=C(Nc1ccc(NC(=O)c2cccs2)cn1)c1ccccc1` the “activity, negative = inhibition” value was inactive: -14.1%.
In the case of `C/C(CCN1CCCc2nc(C)c(C)cc21)=N\O[C@@H](C)c1cc(-c2c(C)cc(C)cc2C)no1`, the activity, negative = inhibition was inactive: -1.42% [at 11.5 µM].
With `Cc1cc(C(=O)COc2cccc3cccnc23)c(C)n1C` the Potency was inconclusive: 7.08 µM [inhibitor, partial curve].
For `O=C(NCCc1ccccc1)C(c1cccs1)N(C(=O)CCl)c1ccc(Cl)cc1` (configuration not stated), the Potency was inconclusive: 12.6 µM [inhibitor, partial curve, poor fit].
In the case of `Fc1ccccc1-c1nc(N2CCN(c3cccc(Cl)c3)CC2)c2ccccc2n1`, the “activity, negative = inhibition” value was inactive: -6.61%.
For `COc1cc(OC)c(OC)cc1/C=N/Nc1ncnc2c1[nH]c1ccc(C)cc12`, the Potency was inconclusive: 1 µM [inhibitor, full curve].
For `CCOc1ccc(CCNC(=O)c2cc(=O)[nH]c3ccc(S(=O)(=O)N4CCCCC4C)cc23)cc1OCC` (configuration not stated), the “activity, negative = inhibition” value was inactive: 4.85%.
With `CCC(=O)Nc1c(S(=O)(=O)c2ccccc2)c2nc3ccccc3nc2n1C(C)c1ccccc1` (configuration not stated) the “activity, negative = inhibition” value was inactive: -7.47%.
In the case of `Cc1ccc2oc(=O)cc(CN3CCN(C/C=C/c4ccccc4)CC3)c2c1`, the Potency was inconclusive: 44.7 µM [inhibitor, single point].
For `Nc1c(C(=O)c2ccccc2)oc2ccc(Br)cc12`, the Potency was inconclusive: 11.2 µM [inhibitor, partial curve].
In the case of `Cc1ccc(C)c(NC(=O)CSc2nnc([C@@H]3CCCN3C(=O)OC(C)(C)C)o2)c1`, the “activity, negative = inhibition” value was inactive: -1.87%.
With `Cc1ccc(NC(=O)NC2=N/C(=C(/C#N)C(=O)N3CCCC3)c3ccccc32)cc1` the Potency was inconclusive: 15.8 µM [inhibitor, partial curve].
For `COc1cc(/C=N/NC(=S)Nc2cccc(Cl)c2C)ccc1OCC(=O)N1CC(C)OC(C)C1` (configuration not stated), the Potency was inconclusive: 11.2 µM [inhibitor, partial curve].
